# Source: patent publication US20230303648A1 (OSE IMMUNOTHERAPEUTICS, published 2023)
# T1: IL-7 receptor (IL-7R: CD127/CD132) on cells (human, UniProt P16871 21-459; P31785 23-369)
# T1 sequence (looked up) 1: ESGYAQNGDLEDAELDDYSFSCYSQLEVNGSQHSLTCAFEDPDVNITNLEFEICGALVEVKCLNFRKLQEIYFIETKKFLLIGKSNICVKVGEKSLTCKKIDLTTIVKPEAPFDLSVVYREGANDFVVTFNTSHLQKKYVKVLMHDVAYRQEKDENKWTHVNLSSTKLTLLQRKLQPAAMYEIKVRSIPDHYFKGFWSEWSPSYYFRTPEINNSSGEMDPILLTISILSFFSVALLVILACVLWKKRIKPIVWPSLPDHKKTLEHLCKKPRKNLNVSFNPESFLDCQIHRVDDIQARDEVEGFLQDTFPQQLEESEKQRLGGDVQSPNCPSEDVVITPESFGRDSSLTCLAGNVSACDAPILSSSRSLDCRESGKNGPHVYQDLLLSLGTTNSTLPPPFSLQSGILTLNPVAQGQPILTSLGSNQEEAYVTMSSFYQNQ
# T1 sequence (looked up) 2: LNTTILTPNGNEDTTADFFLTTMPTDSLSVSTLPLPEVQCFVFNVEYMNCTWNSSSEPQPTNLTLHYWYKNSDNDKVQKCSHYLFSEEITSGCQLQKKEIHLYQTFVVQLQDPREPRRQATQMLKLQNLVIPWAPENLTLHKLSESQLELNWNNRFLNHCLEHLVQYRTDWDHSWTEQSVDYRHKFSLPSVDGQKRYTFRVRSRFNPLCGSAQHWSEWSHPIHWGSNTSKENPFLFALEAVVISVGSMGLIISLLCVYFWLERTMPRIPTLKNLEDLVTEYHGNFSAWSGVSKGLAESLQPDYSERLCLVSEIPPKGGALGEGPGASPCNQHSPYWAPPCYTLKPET
# T2: CD127 (Sinobiological, 10975-H03H-50) (UniProt P16871 21-239)
# T2 construct: bought; immobilised on the CM5 chip in the Biacore assays; also called CD127 receptor
# T2 sequence (looked up): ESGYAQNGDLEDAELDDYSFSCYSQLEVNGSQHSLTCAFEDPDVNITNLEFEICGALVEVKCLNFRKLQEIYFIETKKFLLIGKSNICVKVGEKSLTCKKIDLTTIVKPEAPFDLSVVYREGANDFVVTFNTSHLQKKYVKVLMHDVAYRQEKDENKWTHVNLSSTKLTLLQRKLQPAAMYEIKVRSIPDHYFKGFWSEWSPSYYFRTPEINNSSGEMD
# T3: CD127 recombinant protein (Histidine tagged, Sino ref 10975-H08H) (UniProt P16871 21-239)
# T3 construct: bought; used in the CD127 sandwich ELISA; also called CD127 receptor; IL-7Ralpha; not shown: histidine tag
# T3 sequence (looked up): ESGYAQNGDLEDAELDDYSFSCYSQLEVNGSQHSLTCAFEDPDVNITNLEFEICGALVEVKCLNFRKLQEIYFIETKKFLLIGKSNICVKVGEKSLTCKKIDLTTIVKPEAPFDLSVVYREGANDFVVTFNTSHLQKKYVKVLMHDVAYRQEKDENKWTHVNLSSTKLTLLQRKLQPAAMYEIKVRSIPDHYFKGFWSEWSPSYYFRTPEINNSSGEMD
# Tests used:
# [1] = target: T4, recombinant human PD-1 (rPD1; Sino Biologicals, reference 10377-H08H) (human, UniProt Q15116 in part); test: ELISA, recombinant human PD-1 immobilised, anti-human Fc-peroxidase, TMB, 450 nm [Following) C]
# T4 construct: bought; also called hPD1; PD-1 receptor
# [2] = target: T1, IL-7 receptor (IL-7R: CD127/CD132) on …; test: cell-based or functional assay
# [3] = target: T2, CD127 (Sinobiological, 10975-H03H-50); test: Biacore: CD127 immobilised on CM5 chip, fusion as analyte (0.35-30 nM), two-state reaction model
# [4] = target: T3, CD127 recombinant protein (Histidine …); test: sandwich ELISA, PD-1 immobilised, molecule preincubated with His-tagged CD127, anti-His-biotin + streptavidin-peroxidase, 450 nm
# [5] = target: T5, human PD-1 and human CD127 co-expressed on cells (Jurkat, CHO or U937) (human, UniProt Q15116 25-288; P16871 21-459); test: flow cytometry, 1:1 co-culture of CHO PD-1+CD127+ and CHO PD-1-CD127+ cells, anti IgG-PE; number printed over the pair of bars
# T5 construct: whole, on cells; two separate receptors on one cell, not a complex; also called PD-1+CD127+ cells; PD-1(+)CD127(+) cells
# [6] = target: T4, recombinant human PD-1 (rPD1; Sino …); test: ELISA: human PD-1 immobilised (given as ED50)
# [7] = target: T3, CD127 recombinant protein (Histidine …); test: double binding ELISA: PD-1 immobilised, revelation with CD127 receptor (given as ED50)
binder,measurement,setting,value
"anti PD-1 IL-7 SS1 bifunctional molecule, IgG4m isotype, (GGGGS)3 linker (other, as m11 with IL-7 SS1; also called SS1 mutant (C2S-C141S + C34S-C129S)) heavy: QIQLVQSGSELKKPGASVKVSCKASGYTFTHYAMNWVRQAPGQGLEWMGWINTNTGEPTYAQGFTGRFVFSLDTSVSTAYLQISSLKAEDTAVYYCAREREPGMDNWGQGTLVTVSSASTKGPSVFPLAPCSRSTSESTAALGCLVKDYFPEPVTVSWNSGALTSGVHTFPAVLQSSGLYSLSSVVTVPSSSLGTKTYTCNVDHKPSNTKVDKRV[… human IgG4 Fc with S228P L445P (EU numbers) …]GGGGSGGGGSGGGGSDSDIEGKDGKQYESVLMVSIDQLLDSMKEIGSNSLNNEFNFFKRHICDANKEGMFLFRAARKLRQFLKMNSTGDFDLHLLKVSEGTTILLNCTGQVKGRKPAALGEAQPTKSLEENKSLKEQKKLNDLSFLKRLLQEIKTSWNKILMGTKEH light: DVVMTQSPLSLPVTLGQPASISCRSSQSLVHANTNTYLEWYQQRPGQSPRLLIYKVSNRFSGVPDRFSGSGSGTDFTLKISRVEAEDVGVYYCFQGTHVPNTFGQGTKLEIKRTVAAPSVFIFPPSDEQLKSGTASVVCLLNNFYPREAKVQWKVDNALQSGNSQESVTEQDSKDSTYSLSSTLTLSKADYEKHKVYACEVTHQGLSSPVTKSFNRGEC",EC50 (read off the curve),[1],~9 ng/mL
"anti PD-1 IL-7 SS3 bifunctional molecule, IgG4m isotype, (GGGGS)3 linker (other, as m11 with IL-7 SS3; also called IGG4 G4S3 IL7 SS3; IgG4 Fc G4S3 Fc IL-7 SS3) heavy: QIQLVQSGSELKKPGASVKVSCKASGYTFTHYAMNWVRQAPGQGLEWMGWINTNTGEPTYAQGFTGRFVFSLDTSVSTAYLQISSLKAEDTAVYYCAREREPGMDNWGQGTLVTVSSASTKGPSVFPLAPCSRSTSESTAALGCLVKDYFPEPVTVSWNSGALTSGVHTFPAVLQSSGLYSLSSVVTVPSSSLGTKTYTCNVDHKPSNTKVDKRV[… human IgG4 Fc with S228P L445P (EU numbers) …]GGGGSGGGGSGGGGSDCDIEGKDGKQYESVLMVSIDQLLDSMKEIGSNSLNNEFNFFKRHISDANKEGMFLFRAARKLRQFLKMNSTGDFDLHLLKVSEGTTILLNSTGQVKGRKPAALGEAQPTKSLEENKSLKEQKKLNDLSFLKRLLQEIKTCWNKILMGTKEH light: DVVMTQSPLSLPVTLGQPASISCRSSQSLVHANTNTYLEWYQQRPGQSPRLLIYKVSNRFSGVPDRFSGSGSGTDFTLKISRVEAEDVGVYYCFQGTHVPNTFGQGTKLEIKRTVAAPSVFIFPPSDEQLKSGTASVVCLLNNFYPREAKVQWKVDNALQSGNSQESVTEQDSKDSTYSLSSTLTLSKADYEKHKVYACEVTHQGLSSPVTKSFNRGEC","pSTAT5 EC50 in CD3 T cells of human PBMCs (second experiment, other donor)",[2],4350 ng/mL
same,Kd,[3],1360 nM
same,Kd2,[3],0.000602 s⁻¹
same,kon,[3],1960 M⁻¹ s⁻¹
same,binding result,[1],binds
"anti PD-1 IL-7 D74E bifunctional molecule, IgG1m isotype, (GGGGS)3 linker (other, as m24 with IL-7 D74E; also called D74 mutant) heavy: QIQLVQSGSELKKPGASVKVSCKASGYTFTHYAMNWVRQAPGQGLEWMGWINTNTGEPTYAQGFTGRFVFSLDTSVSTAYLQISSLKAEDTAVYYCAREREPGMDNWGQGTLVTVSS[… human IgG1 constant region with changes …]GGGGSGGGGSGGGGSDCDIEGKDGKQYESVLMVSIDQLLDSMKEIGSNCLNNEFNFFKRHICDANKEGMFLFRAARKLRQFLKMNSTGEFDLHLLKVSEGTTILLNCTGQVKGRKPAALGEAQPTKSLEENKSLKEQKKLNDLCFLKRLLQEIKTCWNKILMGTKEH light: DVVMTQSPLSLPVTLGQPASISCRSSQSLVHANTNTYLEWYQQRPGQSPRLLIYKVSNRFSGVPDRFSGSGSGTDFTLKISRVEAEDVGVYYCFQGTHVPNTFGQGTKLEIKRTVAAPSVFIFPPSDEQLKSGTASVVCLLNNFYPREAKVQWKVDNALQSGNSQESVTEQDSKDSTYSLSSTLTLSKADYEKHKVYACEVTHQGLSSPVTKSFNRGEC",binding result,[4],binds
"Anti PD-1 IL-7 wt (other, it is either m11 (IgG4m) or m24 (IgG1m), which of the two cannot be told) heavy: QIQLVQSGSELKKPGASVKVSCKASGYTFTHYAMNWVRQAPGQGLEWMGWINTNTGEPTYAQGFTGRFVFSLDTSVSTAYLQISSLKAEDTAVYYCAREREPGMDNWGQGTLVTVSSASTKGPSVFPLAPCSRSTSESTAALGCLVKDYFPEPVTVSWNSGALTSGVHTFPAVLQSSGLYSLSSVVTVPSSSLGTKTYTCNVDHKPSNTKVDKRV[… human IgG4 Fc with S228P L445P (EU numbers) …]GGGGSGGGGSGGGGSDCDIEGKDGKQYESVLMVSIDQLLDSMKEIGSNCLNNEFNFFKRHICDANKEGMFLFRAARKLRQFLKMNSTGDFDLHLLKVSEGTTILLNCTGQVKGRKPAALGEAQPTKSLEENKSLKEQKKLNDLCFLKRLLQEIKTCWNKILMGTKEH light: DVVMTQSPLSLPVTLGQPASISCRSSQSLVHANTNTYLEWYQQRPGQSPRLLIYKVSNRFSGVPDRFSGSGSGTDFTLKISRVEAEDVGVYYCFQGTHVPNTFGQGTKLEIKRTVAAPSVFIFPPSDEQLKSGTASVVCLLNNFYPREAKVQWKVDNALQSGNSQESVTEQDSKDSTYSLSSTLTLSKADYEKHKVYACEVTHQGLSSPVTKSFNRGEC","fold difference of the binding EC50, PD1-CD127+ cells over PD1+CD127+ cells",[5],6 fold
"anti-PD-1 bifunctional molecule comprising IL-7 D74N, GGGGS linker, IgG1N298A isotype (other, also called IgG1m G4S D74N) heavy: QIQLVQSGSELKKPGASVKVSCKASGYTFTHYAMNWVRQAPGQGLEWMGWINTNTGEPTYAQGFTGRFVFSLDTSVSTAYLQISSLKAEDTAVYYCAREREPGMDNWGQGTLVTVSS[… human IgG1 constant region with changes …]GGGGSDCDIEGKDGKQYESVLMVSIDQLLDSMKEIGSNCLNNEFNFFKRHICDANKEGMFLFRAARKLRQFLKMNSTGNFDLHLLKVSEGTTILLNCTGQVKGRKPAALGEAQPTKSLEENKSLKEQKKLNDLCFLKRLLQEIKTCWNKILMGTKEH light: DVVMTQSPLSLPVTLGQPASISCRSSQSLVHANTNTYLEWYQQRPGQSPRLLIYKVSNRFSGVPDRFSGSGSGTDFTLKISRVEAEDVGVYYCFQGTHVPNTFGQGTKLEIKRTVAAPSVFIFPPSDEQLKSGTASVVCLLNNFYPREAKVQWKVDNALQSGNSQESVTEQDSKDSTYSLSSTLTLSKADYEKHKVYACEVTHQGLSSPVTKSFNRGEC",EC50,[6],5.8 ng/mL
same,EC50,[7],0.0085 µg/mL
"anti-PD-1 bifunctional molecule comprising IL-7 D74Q, GGGGS linker, IgG1N298A isotype (other, also called IgG1m G4S D74Q) heavy: QIQLVQSGSELKKPGASVKVSCKASGYTFTHYAMNWVRQAPGQGLEWMGWINTNTGEPTYAQGFTGRFVFSLDTSVSTAYLQISSLKAEDTAVYYCAREREPGMDNWGQGTLVTVSS[… human IgG1 constant region with changes …]GGGGSDCDIEGKDGKQYESVLMVSIDQLLDSMKEIGSNCLNNEFNFFKRHICDANKEGMFLFRAARKLRQFLKMNSTGQFDLHLLKVSEGTTILLNCTGQVKGRKPAALGEAQPTKSLEENKSLKEQKKLNDLCFLKRLLQEIKTCWNKILMGTKEH light: DVVMTQSPLSLPVTLGQPASISCRSSQSLVHANTNTYLEWYQQRPGQSPRLLIYKVSNRFSGVPDRFSGSGSGTDFTLKISRVEAEDVGVYYCFQGTHVPNTFGQGTKLEIKRTVAAPSVFIFPPSDEQLKSGTASVVCLLNNFYPREAKVQWKVDNALQSGNSQESVTEQDSKDSTYSLSSTLTLSKADYEKHKVYACEVTHQGLSSPVTKSFNRGEC",EC50,[6],5.4 ng/mL
same,EC50,[7],0.0157 µg/mL
